# In PubChem BioAssay AID686971 (National Center for Advancing Translational Sciences (NCATS), 2013):
# Screen size: about 360,000 compounds; about 7,500 (2.1%) were called active. This list was built around the results that the source calls inconclusive (neither active nor inactive); the mix of calls is not that of the screen. Calls come from the whole dose curve; as a rule, active = well fitted cell-killing curve with a large enough effect; inconclusive = small, poorly fitted or top-dose-only effect, or effect the other way, or another doubt; inactive = no such curve, though single readings can be large or run the other way. Potencies of inconclusive entries are left out as doubtful fits.
# Assay: qHTS for induction of synthetic lethality in tumor cells producing 2HG: qHTS for the HT-1080-IDH1KD cell line;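 for activity, negative = toxicity: 0% = DMSO wells and -100% = cell-free medium wells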
# Details: HT-1080 IDH1 knockdown viability, ATP luminescence, 48 h; activity, negative = toxicity: at 46.1 µM (top of the series) unless noted
# Method in brief: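 Knockdown cells (IDH1KD HT-1080) received compounds 2 h after plating at 750 cells/well and were kept 48 h at 37 °C in 5% FBS RPMI. A CellTiter-Glo luminescence read gave % activity for curve fitting.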
# Potency is the fitted concentration of half-maximal effect; tags give direction and shape of the fitted curve.
SMILES,Potency,"activity, negative = toxicity"
CCc1ccc(NC(=O)CCc2nc3cccnc3n2Cc2ccc(OC)cc2)cc1,"inconclusive [cytotoxic, single point]",–
COc1ccccc1CC(=O)Nc1sc2c(c1C(N)=O)CCCC2,"inconclusive [cytotoxic, partial curve]",–
O=C(CCCOc1ccc(Cl)cc1Cl)Nc1ncccn1,"inconclusive [cytotoxic, partial curve]",–
COc1ccc(CNC(=O)CCS(=O)(=O)c2ccc3c(c2)CC(C)N3C(=O)C2CC2)cc1 (stereo not drawn),"inconclusive [cytotoxic, single point]",–
O=c1cc(CN(Cc2ccccc2)Cc2ccccc2)c2ccccc2o1,"inconclusive [cytotoxic, single point]",–
COc1ccccc1/C=C/C1C(C(=O)OCC(C)C)=C(C)N=C2SCCC(=O)N21 (stereo not drawn),inactive,–
COc1cccc(CSCC(=O)NCCc2ccccc2)c1OC,inactive,–
COc1ccc(O)c(/C=N/NC(=O)CSc2nnc(C)n2-c2ccccc2)c1,"inconclusive [cytotoxic, partial curve]",–
O=C(c1ccc(S(=O)(=O)Nc2ccc(F)cc2)cc1)N1CCN(C(=O)c2ccco2)CC1,"inconclusive [cytotoxic, partial curve]",–
Cc1ccc(C(=O)N2C(=O)C(c3ccccc3)Oc3ccccc32)cc1 (stereo not drawn),"inconclusive [cytotoxic, partial curve]",–
Cc1cc2[nH]c3ccccc3c2c(C)n1,"inconclusive [cytotoxic, partial curve]",–
CCOC(=O)c1c(NC(=O)CSc2nc3cc(Cl)ccc3c(=O)n2Cc2ccco2)sc(C(=O)N(C)C)c1C,–,inconclusive: -39.3% [cytotoxic]
Cc1c(N/N=C(\C#N)C(=O)c2ccc(Cl)cc2)c(=O)n(-c2ccccc2)n1C,active: 2.59 µM,–
COc1cc(-c2onc3ccc(Br)cc23)cc(OC)c1OC,active: 1.84 µM,–
CCOC(=O)C1CCCN(C2=NC(=O)/C(=C/c3ccc(N(C)C)cc3)S2)C1 (stereo not drawn),"inconclusive [cytotoxic, single point]",–
Cc1c(Cl)cccc1NC(=O)c1cc(-c2ccccc2O)n[nH]1,"inconclusive [cytotoxic, single point]",–
Cc1cc(Cl)ccc1-c1nc(NCc2ccccc2)nc2ccsc12,"inconclusive [cytotoxic, single point]",–
CCOc1ccc(NC(=O)Nc2nc3ccc(S(C)(=O)=O)cc3s2)cc1,"inconclusive [cytotoxic, partial curve]",–
